Measured values taken from the supplement of paper PMC11876631.
± gives the standard deviation of the averaged measurements. Laboratory Escherichia coli strains with one amino-acid change in an essential protein, pooled on minimal glucose agar with carbenicillin or gentamicin at twice the control MIC (plus kanamycin and chloramphenicol for the plasmids), 48 h. Fold change of barcode share against drug-free plates; higher = less susceptible. Active = above 20 in both replicates (the paper's putatively resistant). '<' = one read or none on drug, '>' = one read or none on a drug-free plate. Shares are relative, so most strains fall below 1 when a few take over. Listed are strains with at least 15 reads on both drug-free plates, and hits; most hits rest on fewer reference reads. Replicate rank correlation about 0.5. Edits are read from barcodes.

Target: Escherichia coli (laboratory strain)
Test: barcode share on antibiotic plates over drug-free plates; higher = less susceptible
Procedure: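 A pool of E. coli strains, each edited to carry one amino-acid change in an essential protein, was grown for 48 h on minimal glucose agar with or without antibiotic; strain barcodes were sequenced; mean of two replicates.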

[1] = antibiotic: carbenicillin, 2× MIC (3.1 µg/mL)
[2] = antibiotic: gentamicin, 2× MIC (MIC 0.45 µg/mL)

Protein	fold change of barcode share [1]	fold change of barcode share [2]
ligA I289P (protein) MESIEQQLTELRTTLRHHEYLYHVMDAPEIPDAEYDRLMRELRELETKHPELITPDSPTQRVGAAPLAAFSQIRHEVPMLSLDNVFDEESFLAFNKRVQDRLKNNEKVTWCCELKLDGLAVSILYENGVLVSAATRGDGTTGEDITSNVRTIRAIPLKLHGENIPARLEVRGEVFLPQAGFEKINEDARRTGGKVFANPRNAAAGSLRQLDPRITAKRPLTFFCYGVGVLEGGELPDTHLGRLLQFKKWGLPVSDRVTLCESAEEVLAFYHKVEEDRPTLGFDIDGVVPKVNSLAQQEQLGFVARAPRWAVAFKFPAQEQMTFVRDVEFQVGRTGAITPVARLEPVHVAGVLVSNATLHNADEIERLGLRIGDKVVIRRAGDVIPQVVNVVLSERPEDTREVVFPTHCPVCGSDVERVEGEAVARCTGGLICGAQRKESLKHFVSRRAMDVDGMGDKIIDQLVEKEYVHTPADLFKLTAGKLTGLERMGPKSAQNVVNALEKAKETTFARFLYALGIREVGEATAAGLAAYFGTLEALEAASIEELQKVPDVGIVVASHVHNFFAEESNRNVISELLAEGVHWPAPIVINAEEIDSPFAGKTVVLTGSLSQMSRDDAKARLVELGAKVAGSVSKKTDLVIAGEAAGSKLAKAQELGIEVIDEAEMLRLLGS	0.278 ± 0.06	< 0.0171
ligA L512A (protein) MESIEQQLTELRTTLRHHEYLYHVMDAPEIPDAEYDRLMRELRELETKHPELITPDSPTQRVGAAPLAAFSQIRHEVPMLSLDNVFDEESFLAFNKRVQDRLKNNEKVTWCCELKLDGLAVSILYENGVLVSAATRGDGTTGEDITSNVRTIRAIPLKLHGENIPARLEVRGEVFLPQAGFEKINEDARRTGGKVFANPRNAAAGSLRQLDPRITAKRPLTFFCYGVGVLEGGELPDTHLGRLLQFKKWGLPVSDRVTLCESAEEVLAFYHKVEEDRPTLGFDIDGVVIKVNSLAQQEQLGFVARAPRWAVAFKFPAQEQMTFVRDVEFQVGRTGAITPVARLEPVHVAGVLVSNATLHNADEIERLGLRIGDKVVIRRAGDVIPQVVNVVLSERPEDTREVVFPTHCPVCGSDVERVEGEAVARCTGGLICGAQRKESLKHFVSRRAMDVDGMGDKIIDQLVEKEYVHTPADLFKLTAGKLTGLERMGPKSAQNVVNALEKAKETTFARFAYALGIREVGEATAAGLAAYFGTLEALEAASIEELQKVPDVGIVVASHVHNFFAEESNRNVISELLAEGVHWPAPIVINAEEIDSPFAGKTVVLTGSLSQMSRDDAKARLVELGAKVAGSVSKKTDLVIAGEAAGSKLAKAQELGIEVIDEAEMLRLLGS	0.368 ± 0.13	0.0154 ± 0.017
ligA L512W (protein) MESIEQQLTELRTTLRHHEYLYHVMDAPEIPDAEYDRLMRELRELETKHPELITPDSPTQRVGAAPLAAFSQIRHEVPMLSLDNVFDEESFLAFNKRVQDRLKNNEKVTWCCELKLDGLAVSILYENGVLVSAATRGDGTTGEDITSNVRTIRAIPLKLHGENIPARLEVRGEVFLPQAGFEKINEDARRTGGKVFANPRNAAAGSLRQLDPRITAKRPLTFFCYGVGVLEGGELPDTHLGRLLQFKKWGLPVSDRVTLCESAEEVLAFYHKVEEDRPTLGFDIDGVVIKVNSLAQQEQLGFVARAPRWAVAFKFPAQEQMTFVRDVEFQVGRTGAITPVARLEPVHVAGVLVSNATLHNADEIERLGLRIGDKVVIRRAGDVIPQVVNVVLSERPEDTREVVFPTHCPVCGSDVERVEGEAVARCTGGLICGAQRKESLKHFVSRRAMDVDGMGDKIIDQLVEKEYVHTPADLFKLTAGKLTGLERMGPKSAQNVVNALEKAKETTFARFWYALGIREVGEATAAGLAAYFGTLEALEAASIEELQKVPDVGIVVASHVHNFFAEESNRNVISELLAEGVHWPAPIVINAEEIDSPFAGKTVVLTGSLSQMSRDDAKARLVELGAKVAGSVSKKTDLVIAGEAAGSKLAKAQELGIEVIDEAEMLRLLGS	0.294 ± 0.041	< 0.00907
ligA L512Q (protein) MESIEQQLTELRTTLRHHEYLYHVMDAPEIPDAEYDRLMRELRELETKHPELITPDSPTQRVGAAPLAAFSQIRHEVPMLSLDNVFDEESFLAFNKRVQDRLKNNEKVTWCCELKLDGLAVSILYENGVLVSAATRGDGTTGEDITSNVRTIRAIPLKLHGENIPARLEVRGEVFLPQAGFEKINEDARRTGGKVFANPRNAAAGSLRQLDPRITAKRPLTFFCYGVGVLEGGELPDTHLGRLLQFKKWGLPVSDRVTLCESAEEVLAFYHKVEEDRPTLGFDIDGVVIKVNSLAQQEQLGFVARAPRWAVAFKFPAQEQMTFVRDVEFQVGRTGAITPVARLEPVHVAGVLVSNATLHNADEIERLGLRIGDKVVIRRAGDVIPQVVNVVLSERPEDTREVVFPTHCPVCGSDVERVEGEAVARCTGGLICGAQRKESLKHFVSRRAMDVDGMGDKIIDQLVEKEYVHTPADLFKLTAGKLTGLERMGPKSAQNVVNALEKAKETTFARFQYALGIREVGEATAAGLAAYFGTLEALEAASIEELQKVPDVGIVVASHVHNFFAEESNRNVISELLAEGVHWPAPIVINAEEIDSPFAGKTVVLTGSLSQMSRDDAKARLVELGAKVAGSVSKKTDLVIAGEAAGSKLAKAQELGIEVIDEAEMLRLLGS	0.358 ± 0.082	< 0.00894
ligA V353P (protein) MESIEQQLTELRTTLRHHEYLYHVMDAPEIPDAEYDRLMRELRELETKHPELITPDSPTQRVGAAPLAAFSQIRHEVPMLSLDNVFDEESFLAFNKRVQDRLKNNEKVTWCCELKLDGLAVSILYENGVLVSAATRGDGTTGEDITSNVRTIRAIPLKLHGENIPARLEVRGEVFLPQAGFEKINEDARRTGGKVFANPRNAAAGSLRQLDPRITAKRPLTFFCYGVGVLEGGELPDTHLGRLLQFKKWGLPVSDRVTLCESAEEVLAFYHKVEEDRPTLGFDIDGVVIKVNSLAQQEQLGFVARAPRWAVAFKFPAQEQMTFVRDVEFQVGRTGAITPVARLEPVHVAGVLPSNATLHNADEIERLGLRIGDKVVIRRAGDVIPQVVNVVLSERPEDTREVVFPTHCPVCGSDVERVEGEAVARCTGGLICGAQRKESLKHFVSRRAMDVDGMGDKIIDQLVEKEYVHTPADLFKLTAGKLTGLERMGPKSAQNVVNALEKAKETTFARFLYALGIREVGEATAAGLAAYFGTLEALEAASIEELQKVPDVGIVVASHVHNFFAEESNRNVISELLAEGVHWPAPIVINAEEIDSPFAGKTVVLTGSLSQMSRDDAKARLVELGAKVAGSVSKKTDLVIAGEAAGSKLAKAQELGIEVIDEAEMLRLLGS	0.3569 ± 0.002	–
ligA V121A (protein) MESIEQQLTELRTTLRHHEYLYHVMDAPEIPDAEYDRLMRELRELETKHPELITPDSPTQRVGAAPLAAFSQIRHEVPMLSLDNVFDEESFLAFNKRVQDRLKNNEKVTWCCELKLDGLAASILYENGVLVSAATRGDGTTGEDITSNVRTIRAIPLKLHGENIPARLEVRGEVFLPQAGFEKINEDARRTGGKVFANPRNAAAGSLRQLDPRITAKRPLTFFCYGVGVLEGGELPDTHLGRLLQFKKWGLPVSDRVTLCESAEEVLAFYHKVEEDRPTLGFDIDGVVIKVNSLAQQEQLGFVARAPRWAVAFKFPAQEQMTFVRDVEFQVGRTGAITPVARLEPVHVAGVLVSNATLHNADEIERLGLRIGDKVVIRRAGDVIPQVVNVVLSERPEDTREVVFPTHCPVCGSDVERVEGEAVARCTGGLICGAQRKESLKHFVSRRAMDVDGMGDKIIDQLVEKEYVHTPADLFKLTAGKLTGLERMGPKSAQNVVNALEKAKETTFARFLYALGIREVGEATAAGLAAYFGTLEALEAASIEELQKVPDVGIVVASHVHNFFAEESNRNVISELLAEGVHWPAPIVINAEEIDSPFAGKTVVLTGSLSQMSRDDAKARLVELGAKVAGSVSKKTDLVIAGEAAGSKLAKAQELGIEVIDEAEMLRLLGS	0.274 ± 0.045	< 0.00394
lipA I22A (protein) MSKPIVMERGVKYRDADKMALAPVKNVATEREALLRKPEWMKIKLPADSTRIQGIKAAMRKNGLHSVCEEASCPNLAECFNHGTATFMILGAICTRRCPFCDVAHGRPVAPDANEPVKLAQTIADMALRYVVITSVDRDDLRDGGAQHFADCITAIREKSPQIKIETLVPDFRGRMDRALDILTATPPDVFNHNLENVPRIYRQVRPGADYNWSLKLLERFKEAHPEIPTKSGLMVGLGETNEEIIEVMRDLRRHGVTMLTLGQYLQPSRHHLPVQRYVSPDEFDEMKAEALAMGFTHAACGPFVRSSYHADLQAKGMEVK	0.502 ± 0.13	26.2 ± 31
lipA I22W (protein) MSKPIVMERGVKYRDADKMALWPVKNVATEREALLRKPEWMKIKLPADSTRIQGIKAAMRKNGLHSVCEEASCPNLAECFNHGTATFMILGAICTRRCPFCDVAHGRPVAPDANEPVKLAQTIADMALRYVVITSVDRDDLRDGGAQHFADCITAIREKSPQIKIETLVPDFRGRMDRALDILTATPPDVFNHNLENVPRIYRQVRPGADYNWSLKLLERFKEAHPEIPTKSGLMVGLGETNEEIIEVMRDLRRHGVTMLTLGQYLQPSRHHLPVQRYVSPDEFDEMKAEALAMGFTHAACGPFVRSSYHADLQAKGMEVK	0.495 ± 0.019	21.3 ± 25
lipA I22Q (protein) MSKPIVMERGVKYRDADKMALQPVKNVATEREALLRKPEWMKIKLPADSTRIQGIKAAMRKNGLHSVCEEASCPNLAECFNHGTATFMILGAICTRRCPFCDVAHGRPVAPDANEPVKLAQTIADMALRYVVITSVDRDDLRDGGAQHFADCITAIREKSPQIKIETLVPDFRGRMDRALDILTATPPDVFNHNLENVPRIYRQVRPGADYNWSLKLLERFKEAHPEIPTKSGLMVGLGETNEEIIEVMRDLRRHGVTMLTLGQYLQPSRHHLPVQRYVSPDEFDEMKAEALAMGFTHAACGPFVRSSYHADLQAKGMEVK	0.982 ± 0.011	70 [active]
